Out of some 45,000 compounds screened, about 65 (0.1%) were called active. The call rests on the fitted dose curve; in most records, active means well fitted activation curve with a large enough effect; inconclusive means small, poorly fitted or top-dose-only effect; inactive means no such curve, though single readings can be large or run the other way. Some of the results follow.
The molecules below were run against Galactocerebrosidase (Homo sapiens) (UniProt P54803) (assay: A Novel Cell-Based Assay to Identify Small Molecules for B -Galactocerebrosidase). Conditions: 145M-Twi-hGALC-G270D cells (Twitcher mouse brain line with human GALC G270D), HMU-beta-Gal fluorescence, 48 h; activation: at the top concentration.
Sequence of UniProt P54803 (P54803 whole entry, looked up): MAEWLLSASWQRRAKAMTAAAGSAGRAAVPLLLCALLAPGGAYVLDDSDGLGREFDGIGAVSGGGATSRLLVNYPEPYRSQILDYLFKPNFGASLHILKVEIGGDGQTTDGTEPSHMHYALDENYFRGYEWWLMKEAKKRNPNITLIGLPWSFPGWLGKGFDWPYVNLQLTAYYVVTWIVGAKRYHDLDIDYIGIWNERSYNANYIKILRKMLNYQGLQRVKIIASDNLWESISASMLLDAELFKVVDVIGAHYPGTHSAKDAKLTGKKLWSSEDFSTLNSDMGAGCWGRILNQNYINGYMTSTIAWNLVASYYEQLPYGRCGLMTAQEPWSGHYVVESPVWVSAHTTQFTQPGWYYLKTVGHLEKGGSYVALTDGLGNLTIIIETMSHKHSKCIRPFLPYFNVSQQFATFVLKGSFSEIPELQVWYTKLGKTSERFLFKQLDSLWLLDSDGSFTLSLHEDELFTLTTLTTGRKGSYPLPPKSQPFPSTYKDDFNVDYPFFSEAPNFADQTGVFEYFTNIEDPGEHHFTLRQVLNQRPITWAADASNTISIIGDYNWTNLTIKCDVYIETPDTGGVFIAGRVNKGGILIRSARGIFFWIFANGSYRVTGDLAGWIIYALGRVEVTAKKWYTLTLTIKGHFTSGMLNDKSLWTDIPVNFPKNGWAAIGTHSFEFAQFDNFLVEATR
Procedure, shortened: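 Live 145M-Twi cells (Twitcher mouse brain-derived, GALC-null) stably expressing human GALC-G270D, with a wild-type GALC line, were compound-treated. Residual GALC activity was then read as fluorescence from 0.1 mM final HMU-β-gal at pH 5.2; higher signal means activation.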
Further: 0% is about no effect; nearly all actives have a fitted effect of over 65% in size.

| SMILES | activation |
| --- | --- |
| Clc1ccc(CCC(Cn2ccnc2)Sc2c(Cl)cccc2Cl)cc1 (stereo not drawn) | inactive: -19.6% |
| Oc1ccc(Cl)cc1 | inactive: -20% |
| Cc1ccc(Cn2cccc(C(=O)Nc3nc4ccc(C)cc4s3)c2=O)cc1 | inactive: -6.11% |
| COc1ccc(NC(=O)CN2C(=O)C(C)N=C(c3ccccc3)c3ccccc32)cc1OC (stereo not drawn) | inactive: -11.6% |
| CC(C)c1c(CN(C)C(C)Cc2ccccc2)n(C)n(-c2ccccc2)c1=O (stereo not drawn) | inactive: -19.3% |
| COC(=O)C(Cl)C(=O)OC | inactive: -13% |
| O=S(=O)(c1ccc(Cl)cc1)c1ccc(Cl)cc1 | inactive: -5.29% [at 114 µM] |
| CCc1ccc(-n2nc(C)c3c2NC(=O)CSC3c2ccccc2C)cc1 (stereo not drawn) | inactive: -5.65% |
| O=P1(NCCCl)OCCCN1CCCl (stereo not drawn) | inactive: -15.5% |
| Cc1ccc(OCC(=O)Nc2ccc(Cl)cc2C(=O)c2ccccc2)c(Br)c1 | inactive: -3.5% |
| O=c1[nH]c2ccccc2n1C1CCNCC1 | inactive: -16.2% |
| NC(=O)CN1CCCC1=O | inactive: -6.46% |
| CC(C)NC(C)C | inactive: -13.3% |
| N[C@@H](Cc1ccc(Oc2cc(I)c(O)c(I)c2)c(I)c1)C(=O)O | inactive: -7.31% |
| ClCCN1CCCC1 | inactive: -7.69% |
| Sc1ccccc1Cl | inactive: -11.3% |
| Cc1cc(C)cc(NC(=O)CN2C(=O)CN=C(c3ccccc3)c3cc(Cl)ccc32)c1 | inactive: -17.8% |
| C#C[C@]1(O)C=C[C@H]2[C@@H]3CCC4=CC(=O)CC[C@@H]4[C@H]3CC[C@@]21CC | inactive: -3.95% |
| O=C(COc1ccc(Br)cc1)Nc1ccc(Cl)cc1C(=O)c1ccccc1 | inactive: 11.3% |
| Oc1ccc([C@H]2CNCc3c2ccc(O)c3O)cc1O | inactive: -8.99% |
| CC(C)(C)NCC(O)c1ccccc1Cl (stereo not drawn) | inactive: -8.85% |
| CN(C(=O)CSc1nc2ccc(NC(=O)COc3ccc(Cl)cc3)cc2s1)c1ccccc1 | inactive: -41.1% |
| c1cnc2c(c1)ncn2C1CCNCC1 | inactive: -6.88% |
| COc1cccc(-n2c(/C=C\c3ccc(Cl)cc3)nc3ccccc3c2=O)c1 | inactive: -37.2% |
| Cc1ccc(C(C)(C)C)c(OCC(=O)Nc2ccc(Cl)cc2C(=O)c2ccccc2)c1 | inactive: -13.7% |

| SMILES | activation |
| --- | --- |
| Cc1ccc(OCC(=O)N2CCN(Cc3ccc(F)cc3)CC2)cc1 | inactive: -9.38% |
| CN(C)C(=S)SSC(=S)N(C)C | inactive: -15.6% |
| CC(=O)OCC1=C(C(=O)O)N2C(=O)[C@@H](N)[C@H]2SC1 | inactive: -13.5% [at 23.8 µM] |
| O=[N+]([O-])/N=C1\NCCN1Cc1ccc(Cl)nc1 | inactive: -11.6% |
| COc1cccc(NC(=O)C2CCN(c3nnc(C)c4c(C)n(-c5ccccc5)nc34)CC2)c1 | inactive: -10.6% |
| Cc1cccc(OCC(=O)N2CCN(Cc3cc(=O)n4nc(-c5ccccc5Cl)sc4n3)CC2)c1 | inactive: -29.9% |
| C[C@H]1C(=O)O[C@@H]2CCN3CC=C(COC(=O)[C@](C)(O)[C@]1(C)O)[C@H]23 | inactive: -9.28% |
| CCOc1ccc(C(=O)Nc2cccc(C(=O)OCc3cc(=O)n4nc(C5CC5)sc4n3)c2)cc1 | inactive: -30.7% |
| COC(=O)c1cncn1C(C)c1ccccc1 (stereo not drawn) | inactive: -1.74% |
| CC(CC(C(N)=O)(c1ccccc1)c1ccccc1)N(C)C (stereo not drawn) | inactive: -4.53% |
| CN1C(=O)NC(=O)C(C)(C2=CCCCC2)C1=O (stereo not drawn) | inactive: -16.8% |
| Cc1ccccc1-c1nn2c(=O)cc(CN3CCN(C(=O)COc4ccccc4Cl)CC3)nc2s1 | inactive: -12.8% |
| Cc1ccc(-n2c(/C=C\c3ccc(F)c(F)c3)nc3ccccc3c2=O)c(C)c1 | inactive: -15.7% |
| CN1C(=O)CN=C(c2ccccc2)c2cc([N+](=O)[O-])ccc21 | inactive: -13.9% |
| CCOc1c(N2CCOCC2)cnn(C)c1=O | inactive: -31.1% |
| O=C1c2ccccc2C(=O)c2ccccc21 | inactive: -5.95% [at 23.8 µM] |
| C=CCc1cc(OC)c(O)c(C(=O)NCCO)c1 | inactive: -11.8% |
| Cc1ccc2c(=O)n(-c3cccc(Cl)c3)c(=O)[nH]c2c1 | inactive: -15.5% |
| Cc1ccc2nc(NC(=O)c3cccn(Cc4ccccc4F)c3=O)sc2c1 | inactive: -11.7% |
| CCC(COC(=O)c1cc(OC)c(OC)c(OC)c1)(c1ccccc1)N(C)C (stereo not drawn) | inactive: -16.3% |
| COc1cc2[nH]c(=O)n(-c3ccc(C)cc3)c(=O)c2cc1OC | inactive: -7.64% |
| CCOCCOC(C)=O | inactive: -13.5% [at 114 µM] |
| CCN(CC)C(=O)c1ccc(NC(=O)COc2ccc(-c3nn(C)c(=O)c4ccccc34)cc2)cc1 | inactive: -5.75% |
| CC[N+](CC)(CC)CC | inactive: -11.3% |
| CCc1ccc(-n2nc(C)c3c2NC(=O)CSC3c2ccc(C(=O)OC)cc2)cc1 (stereo not drawn) | inactive: -8.35% |

| SMILES | activation |
| --- | --- |
| COc1ccccc1-c1nn2c(=O)cc(CN3CCN(C(=O)COc4ccccc4Cl)CC3)nc2s1 | inactive: -0.097% |
| O=[N+]([O-])c1ccc([As](=O)(O)O)cc1 | inactive: -19.3% |
| Cc1ccccc1-c1nc(CN2C(=O)CN=C(c3ccccc3)c3ccccc32)c(C)o1 | inactive: -19.5% |
| CCCc1cc(N2CCN(c3cccc(C)c3C)CC2)n2cnnc2n1 | inactive: -23.6% |
| CCN(C(C)=O)c1cccc(-c2ccnc3c(C#N)cnn23)c1 | inactive: -9.64% |
| O=C(Nc1ccc(Br)cc1C(=O)c1ccccc1Cl)c1ccc(Br)cc1 | inactive: -12.1% |
| COc1cc(OC)cc(C(=O)Nc2ccc(Cl)cc2C(=O)c2ccccc2Cl)c1 | inactive: -12% |
| CCC12CN3CC(CC)(CN(C1)C3c1c(C)[nH]c(=O)[nH]c1=O)C2=O (stereo not drawn) | inactive: -12.5% |
| CC(C)Oc1cccc(NC(=O)c2ccccc2C(F)(F)F)c1 | inactive: -17.9% [at 114 µM] |
| COc1cc(C[C@@H](C)N)c(OC)cc1Br | inactive: -7.4% [at 129 µM] |
| O=C(Nc1ccc2nc3n(c(=O)c2c1)CCCCC3)c1cccc(C(F)(F)F)c1 | inactive: -40.1% |
| C[C@@H]1CC[C@H]2[C@@H](C)C(=O)O[C@@H]3O[C@@]4(C)CC[C@@H]1[C@]32OO4 | inactive: -12.6% |
| CCC1(c2cccc(O)c2)CCCCN(C)C1 (stereo not drawn) | inactive: -5.57% |
| C1CCC(NC2CCCCC2)CC1 | inactive: -14.3% |
| O=c1c2ccccc2nc(/C=C/c2cccc3ccccc23)n1-c1ccc(Cl)cc1 | inactive: -17% |
| CCN(CC)C(=O)[C@@H]1C=C2c3cccc4[nH]cc(c34)C[C@H]2N(C)C1 | inactive: -2.99% [at 273 µM] |
| COc1ccc(OCC(=O)N2CCN(CCc3ccncc3)CC2)cc1 | inactive: -12.7% |
| Cc1ccccc1-n1c(/C=C/c2c(C)[nH]c3ccccc23)nc2ccccc2c1=O | inactive: -18.8% |
| CNCC(=O)c1ccc(O)c(O)c1 | inactive: -16.3% |
| O=C(NC(=O)c1c(F)cccc1F)Nc1cc(Cl)c(OC(F)(F)C(F)C(F)(F)F)cc1Cl (stereo not drawn) | inactive: -4.1% |
| Cc1ccccc1-n1nc(C)c2c1NC(=O)CSC2c1ccc(Cl)cc1 (stereo not drawn) | inactive: -10.1% |
| Cc1ccc(Cn2cccc(C(=O)Nc3cc(C)on3)c2=O)cc1 | inactive: -14.6% |
| Cc1c(C(c2ccc(Br)cc2)c2c(O)c3ccccc3oc2=O)c(=O)n(-c2ccccc2)n1C (stereo not drawn) | inactive: -17.3% |

— PubChem BioAssay AID1159614 (National Center for Advancing Translational Sciences (NCATS), 2016)
